In PubChem BioAssay AID686979 (National Center for Advancing Translational Sciences (NCATS), 2013):
The campaign covered roughly 420,000 compounds. About 50,000 (12%) were called active. The inconclusive results got no clear call from the source; some entries with a clear call stand among them for comparison. Calls come from the whole dose curve; as a rule, active = well fitted inhibition curve with a large enough effect; inconclusive = small, poorly fitted or top-dose-only effect; inactive = flat fitted curve, though single readings scatter. No potency is given beside an inconclusive call; the fits are too rough.

Assay: qHTS for Inhibitors of human tyrosyl-DNA phosphodiesterase 1 (TDP1): qHTS in cells in presence of CPT; note: nearly all actives have a fitted effect of over 55% in size
Conditions: chicken DT40 Tdp1-/-;hTDP1 cells + 20 nM CPT, ATP luminescence, 48 h; activity change, negative = growth inhibition: at 46.2 µM (top of the series)
Outline: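 Chicken DT40 Tdp1-/- cells complemented with human TDP1, 400 cells/well, exposed to compounds plus 20 nM camptothecin for at least 48 h at 37 C; viability read as ATP content by CellTiter-Glo luminescence.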
% is set by controls: 0 for no effect and ±100 for the full control effect; potency is the fitted concentration of half-maximal effect; tags give direction and shape of the fitted curve.

Row | SMILES | Potency | activity change, negative = growth inhibition
1 | CC(C)NC(=O)N(C)C[C@H]1Oc2cc(C#Cc3ccc(F)cc3)ccc2S(=O)(=O)N([C@H](C)CO)C[C@H]1C | active: 23.1 µM | –
2 | C=CCNC(=O)[C@H]1N2C(=O)c3ccccc3C2SC1(C)C (some centres not stated) | inactive | –
3 | COc1ccc(NC(=S)N2CCN(C(=O)c3ccccc3)CC2)cc1 | inactive | –
4 | CC(C)CC(CO)N1CCN(C(=O)c2ccc(Cl)c(Cl)c2)CCC1=O (configuration not stated) | inconclusive [inhibitor, partial curve, poor fit] | –
5 | CC(=O)c1ccc2oc3ccccc3c(=O)c2c1 | inactive | –
6 | O=C(/C=C/c1ccc(Cl)c(C(F)(F)F)c1)N1CCN(c2ccccn2)CC1 | inactive | –
7 | Cc1ccccc1CC(=O)N1CCOCC1 | inactive | –
8 | CCCn1c2ccc(F)cc2c2nnc(NN)nc21 | inconclusive [inhibitor, single point] | –
9 | COCC(=O)Nc1ccc2c(c1)[C@@H]1C[C@H](CC(=O)NCc3ccccc3)O[C@@H](CO)[C@@H]1O2 | – | inconclusive: 3.8% [inhibitor]
10 | CCOc1ccccc1NC(=O)C1=C(C)Nc2ncnn2C1c1sccc1C (configuration not stated) | inconclusive [inhibitor, single point] | –
11 | c1ccc(CSc2nnc(-c3ccco3)c(-c3ccco3)n2)cc1 | inconclusive [inhibitor, single point] | –
12 | Cc1ccc(CNC(=O)c2c(-c3ccc(Br)cc3)noc2C)o1 | inconclusive [inhibitor, single point] | –
13 | CCCOc1ccc(N2C(=O)CC(NCC(=O)OCC)C2=O)cc1 (configuration not stated) | inactive | –
14 | Cc1ccc(NC(=O)C2(c3ccccc3)CCOCC2)cc1 | inconclusive [inhibitor, single point] | –
15 | COc1ccc(CCNC(=O)c2c(O)nc3c(C)cccn3c2=O)cc1OC | active: 23.1 µM | –
16 | CCn1c2c(c(=O)n3ncc(C(=O)Nc4ccc(C(=O)OC)cc4)c13)CN(Cc1ccc(OC)cc1)CC2 | inconclusive [inhibitor, partial curve] | –
17 | CCC1CN(CCNC(=O)c2ccc3c(c2)OCCO3)Cc2cc(OC)ccc2O1 (configuration not stated) | – | inactive: 9.49% [at 9.04 µM]
18 | COc1ccc(C)cc1NC(=O)c1ccc2nc(Cc3ccccc3)oc2c1 | inconclusive [inhibitor, single point] | –
19 | Cc1ccc(S(=O)(=O)N(C)C)cc1N | inactive | –
20 | Cc1c(C(=O)NCc2ccccc2)oc2ccc(S(=O)(=O)N3CCC(C)CC3)cc12 | active: 9.2 µM | –
21 | O=C(NCc1ccco1)c1ccc2c(=O)n(Cc3ccco3)c(SCC(=O)N3CCCC3)nc2c1 | active: 25.9 µM | –
22 | COc1ccc(S(=O)(=O)N2CCN(C(=O)c3ccco3)CC2)c(C)c1C | inconclusive [inhibitor, partial curve] | –
23 | FC(F)(F)c1ccc(N2CCN(Cc3ccc4c(c3)OCO4)CC2)nc1 | inconclusive [inhibitor, single point] | –
24 | N#CCCN(C(=O)COC(=O)CCN=C1NS(=O)(=O)c2ccccc21)c1ccc(F)cc1 | inactive | –

Row | SMILES | Potency | activity change, negative = growth inhibition
25 | Cc1coc2c1c(C)cc1oc(=O)c(CC(=O)NCCc3ccc(Cl)cc3)c(C)c12 | inactive | –
26 | C/C(=N\NC(=S)NCCc1ccccc1)c1ccc(C)cc1 | inconclusive [inhibitor, single point] | –
27 | Cc1noc(NS(=O)(=O)c2ccc(NC(=O)CSc3nc4c(cc3C#N)CCCCC4)cc2)c1C | inactive | –
28 | CC1N(C)c2cc(NC(=O)c3cccs3)c(P(=O)(Nc3ccc([N+](=O)[O-])cc3)N3CCOCC3)cc2C1(C)C (configuration not stated) | inconclusive [inhibitor, single point] | –
29 | CCc1noc(C)c1C(=O)Nc1nc(-c2ccc(NC(C)=O)cc2)cs1 | active: 16.4 µM | –
30 | O=C(CNC(c1ccccc1)c1ccccc1)NCc1ccccc1Cl | inconclusive [inhibitor, single point] | –
31 | CCc1cc(=O)oc2c(CNCc3ccccc3F)c(O)c(Cl)cc12 | inconclusive [inhibitor, single point] | –
32 | Cc1nn(-c2ccccc2)c(N)c1Sc1ccc([N+](=O)[O-])cc1 | inconclusive [inhibitor, partial curve, poor fit] | –
33 | COCc1ccc2oc(C(=O)O)cc2c1 | active: 11.6 µM | –
34 | O=C(Nc1ccc(Br)cc1)c1cccc(NC(=O)C2C3CC4OC(=O)C2C4C3)c1 (configuration not stated) | inactive | –
35 | COc1ccc(S(=O)(=O)NCCOc2ccccc2)cc1OC | inactive | –
36 | Cc1cc(=O)[nH]c(SCCOc2cccc(C(F)(F)F)c2)n1 | inconclusive [inhibitor, partial curve, poor fit] | –
37 | Cc1c(C(=O)NCCc2ccc(Cl)cc2)cccc1-n1cnc2cccnc21 | active: 14.6 µM | –
38 | COc1ccc(N2CCN(C(=O)c3cc(-c4ccc(C)c(F)c4)on3)CC2)cc1 | inactive | –
39 | Clc1nc(NCc2ccco2)nc(N2CCCCC2)n1 | inconclusive [inhibitor, partial curve] | –
40 | COc1ccccc1-c1nnc(SCC(=O)Nc2cccnc2Cl)n1C | inactive | –
41 | Cc1ccc(N(CC(O)Cn2nc(C)cc2C)S(=O)(=O)c2ccc3ccccc3c2)cc1 (configuration not stated) | inconclusive [inhibitor, single point] | –
42 | Cc1c(C(=O)N2CCOCC2)sc2ncnc(N3CCc4ccccc4C3)c12 | active: 11.6 µM | –
43 | O=c1c(-c2ccc(F)cc2)coc2cc(O)ccc12 | inconclusive [inhibitor, partial curve] | –
44 | CC(C)Oc1cc(F)ccc1-c1cc(C(=O)NCc2ccccn2)[nH]n1 | inconclusive [inhibitor, partial curve, poor fit] | –
45 | CC(C)N1CCc2c(sc(NC(=O)c3ccc(S(=O)(=O)N4CCCCC4C)cc3)c2C(N)=O)C1 (configuration not stated) | inconclusive [inhibitor, single point] | –
46 | COc1ccc(OC)c(NS(=O)(=O)c2ccccc2)c1 | inconclusive [inhibitor, single point] | –
47 | CCOc1ccc(OCc2ccc(C(=O)Nc3cccc(C)n3)o2)cc1 | inconclusive [inhibitor, single point] | –
